This note sets out measurements from patent US20230122503A1, “ANTI-PSMA RADIOCONJUGATES AND USES THEREOF” (Janssen Biotech, Inc., priority 2021, published 2023).

In data set [1] the test system is C4-2b cells, a cell line with high PSMA expression. The data set can be described thus: Cytotoxicity of MMAF-conjugated anti-PSMA antibodies on C4-2B cells (Cell Titer Glo, 72h). The format is cell-based, human. As to conditions: MMAF-conjugated antibody, DAR ~4.0, 72h, read-out: Cytotox (IC50) C4-2B, DAR ~4.0. The protocol:
mAbs were conjugated to a monomethyl auristatin F (MMAF) payload in a 96-well format to enable screening for optimal ADC candidates. 220 ug of each mAb (1 mg/mL in dPBS) was mixed with TCEP to a final concentration of 3 mM and incubated at 37° C. for 1r. Reduced mAbs were captured on protein A resin (Protein A HP Multitrap, GE) and washed 3× with 100 mM potassium phosphate containing 2 mM EDTA at pH 7.5 to remove TCEP.
A mixture of maleimide-PEG4-vcPAB-MMAF and N-ethyl maleimide (60:40 molar ratio, 100 uM total in 100 mM potassium phosphate containing 2 mM EDTA at pH 7.5) was prepared and the resin with bound mAb was resuspended in 300 uL of the maleimide mixture. Samples were rotated for 1 hr at RT followed by quenching with N—Ac-L-Cys (2.6 mM final). Resin was washed with dPBS and then bound mAbs were eluted with 100 mM sodium acetate pH 3.5 into 0.2-0.25 volumes of 1 M Tris pH 8.0 to neutralize. ADC concentrations and DAR (panel average of 4.0±0.5) of the eluted ADCs were determined by UV-Vis spectrophotometry at 248 and 280 nm based on previous reports (Hamblett, et. al., (2004) Clinical Cancer Research, 10, 7063-7070; Cruz and Kayser (2009) Cancers 11(6), 870)
C4-2b cells, a cell line with high PSMA expression, were cultured in RPMI1640 containing GlutaMAX, 25 mM HEPES and 10% fetal bovine serum (FBS) and then plated in white 96 well plates at 3000 cells per well (60 uL/well). Twenty four hours after plating, cells were treated with varying concentrations of the ADCs and then incubated at 37 C, 5% CO2. Following 72h of treatment, cell viability was assessed by Cell Titer Glo (Promega), according to manufacturer's instructions. Relative luminescence units (RLU) were detected in an Envision plate reader (Molecular Devices) and then normalized to untreated controls. The concentration at which there was 50% toxicity was determined by fitting the values to a 3-point sigmoidal curve where the top was constrained to 100% and interpolating the X-value at Y=50%.
Background: ATP-based viability assays read luminescence as a measure of living cells.

Data set [2] is described as follows: Hydrophobic interaction chromatography (HIC). The class given is physicochemical. As to conditions: for Retention time: HIC, TSKgel Butyl-NPR column. Here is the method:
To assess surface their hydrophobicity, the anti-PSMA antibodies were evaluated by HIC (hydrophobic interaction chromatography) method. In summary samples were diluted 1:5 in high salt buffer A and approximately 10 ugs of sample was injected on a TOSOH TSKgel Butyl-NPR column on an Agilent HPLC instrument. HIC was run under a linear Amonium-S04 gradient from 1.1M-0M. UV280, and fluorescence (excitation at 280 nm and emission at 340 nm) signals were collected. The hydrophobicity propensity was evaluated as retention time relative to a control of known high hydrophobicity and reported as a hydrophobicity index (HI).

Data set [3] is described as follows: Cross interaction chromatography (CIC). As to conditions: Perfinity Custom IgG coupled column, PBS 0.2 ml/min. The class given is physicochemical. The protocol: To assess IgG cross-interaction potential the anti-PSMA antibodies were evaluated by CIC (cross interaction chromatography) method. In summary, samples were diluted to 0.11 mg/ml in PBS and 15 uL of sample were injected on a Perfinity Custom IgG coupled column. HIC was run by eluting with PBS at 0.2 ml/min while monitoring A280, A214 and A254. The IgG cross-interaction propensity was evaluated as retention time relative to a control of known IgG cross-interaction.

A short description of data set [4]: Serum stability in human serum by SEC-FDS. The format is in vitro ADME. Here is the method: To assess stability in serum, the anti-PSMA antibodies were labeled with AlexaFluor488 (AF488) and incubated (Cone: 1 mg/mL) for 1 week in human serum at 37° C. Following incubation aggregation and fragmentation were evaluated by SEC-FDS (Size exclusion chromatography with fluorescence detection) method. […] SEC-FDS was run by eluting with PBS at 1 mL/min while monitoring A280 and fluorescence (494 nm (emission) & 520 nm (excitation)).

For data set [5], the system named is HUVEC cells, known to be PSMA negative. The data set can be described thus: In vitro cytotoxicity of PSMA ADCs (vcMMAF) on HUVEC cells (non-specific killing). The format is cell-based, human. Conditions: mAb conjugated to vcMMAF; for IC50: PSMA− HUVEC cells, 72h. Here is the method: Selected mAbs were conjugated to a monomethyl auristatin F (MMAF) payload to confirm results from initial screening. […] To quench the TCEP (Gololobov and Kasukhin (1991) Tetrahedron 48, 1353-1406; […], et. al. (2017) ACS Omega 2, 5785-57) 5 mM 3-amino-propyl-azide was added to the reaction and incubated for 30 min at 37° C. […] ADCs were separated from reaction components and buffer exchanged into dPBS by diafiltration. […] DAR was also calculated by liquid chromatography/mass spectroscopy. Deconvolution of the extracted charge state allowed for the identification and relative fraction (of total) for each light chain and heavy chain species present, as well as their respective degrees of labeling with either maleimide-PEG4-vcPAB-MMAF, N-ethyl maleimide, or (in the case of heavy chain) a combination of both. Total DAR (panel average of 3.4±0.5) for the ADC was calculated from the sum of light chain and heavy chain labeled only with maleimide-PEG4-vcPAB-MMAF. Size exclusion chromatography was carried out to determine percent monomeric fraction based on migration time relative to unlabeled mAbs. In vitro cytotoxicity of selected ADCs was also assessed in a panel of cell lines expressing various levels of PSMA, and a human endothelial cell line HUVEC which was used as a surrogate for non-specific killing. […] Twenty four hours after plating, cells were treated with varying concentrations of the ADCs and then set at 37 C, 5% CO2. Following 72h of treatment, cell viability was assessed by Cell Titer Glo (Promega), according to manufacturer's instructions. Relative luminescence units (RLU) were detected in an Envision plate reader (Perkin Elmer) and then normalized to untreated controls.

B1: PSMB1157 (antibody)
heavy: EVQLVESGGGVVQPGRSLRLSCAASVRTFSGYGMHWVRQVPGKGLEWVAVISYDGSNRYYADSVKGRFTISRDNSKNTLYLQMNSLRTEDTAVYYCARDGNWGSLDLYFDLWGRGTLVTVSS[human IgG1 constant region not given here]
light: QSVLTQPPSVSGAPGQRVTISCTGSSSNIGADYDVHWYQQLPGTAPKLLIYVNNNRPSGVPDRFSGSRSGTSASLAITGLQADDEADYYCQSYDNTLSGVVFGGGTKLTVLGQPKAAPSVTLFPPSSEELQANKATLVCLISDFYPGAVTVAWKADSSPVKAGVETTTPSKQSNNKYAASSYLSLTPEQWKSHRSYSCQVTHEGSTVEKTVAPTECS
As to B1, the IC50 – broadly, the concentration that gives 50% inhibition – in data set [1] was 0.0194 nM; in data set [5] it was 400 nM. In addition, the Retention time in data set [2] is reported as 4.361 min; in data set [3], 4.638 min. The “HI (hydrophobicity index)” value in data set [2] (retention time relative to high hydrophobicity control) is reported as 0.84. Moreover, the “Aggregation (%)” value in data set [4] (37° C., 7 days, SEC-FDS) is given as 0.6%; in data set [4] (Time 0, SEC-FDS), 0%. In addition, the “Fragmentation (%)” value in data set [4] (37° C., 7 days, SEC-FDS) worked out at 0%; in data set [4] (Time 0, SEC-FDS), 0%. Besides, the “Ratio of HUVEC/C4-2B IC50” value in data set [5] came to 14769.

B2: PSMB1154 (antibody)
heavy: EVQLVESGGGEVQPGRSLRLTCAVSGFTLSRYGMHWVRQAPGKGLEWAALISYDGSNRYYADSVKGRFTISRDNSKNTVFLQMNSLRAEDTAVYYCARERESSGWFEGYFDYWGQGTTVTVSS[human IgG1 constant region not given here]
light: QLVLTQPPSVSVAPGQTARITCGGNNIGSKSVHWYQQKPGQAPVLVVYDNSDRPSGIPERFSGSNSGNTATLTISRVEVGDEADYYCQVWDSSSDHVVFGGGTKLTVLGQPKAAPSVTLFPPSSEELQANKATLVCLISDFYPGAVTVAWKADSSPVKAGVETTTPSKQSNNKYAASSYLSLTPEQWKSHRSYSCQVTHEGSTVEKTVAPTECS
Take B2: the IC50 worked out at 0.0156 nM in data set [1] and 212 nM in data set [5]. Besides, the Retention time turned out to be 2.338 min in data set [2] and 4.372 min in data set [3]. Also, the “Aggregation (%)” value is 0.6% in data set [4] (37° C., 7 days, SEC-FDS) and 0% in data set [4] (Time 0, SEC-FDS). Also, the “Fragmentation (%)” value came to 0% in data set [4] (37° C., 7 days, SEC-FDS) and 0% in data set [4] (Time 0, SEC-FDS).
